Reference: PubChem BioAssay AID1030 (National Center for Advancing Translational Sciences (NCATS), 2008)
The campaign covered roughly 220,000 compounds. About 16,000 (7.3%) were called active. The shares of active, inactive and inconclusive entries below differ from those in the screen. The call rests on the fitted dose curve; in most records, active means well fitted inhibition curve with a large enough effect (not every such curve was filed as active); inconclusive means small, poorly fitted or top-dose-only effect, or another doubt; inactive means no such curve, though single readings can be large or run the other way. Potencies of inconclusive entries are left out as doubtful fits.
Potency means the concentration at half of the fitted maximal effect; tags describe the fitted curve by direction and shape.
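Wherever activity, negative = inhibition is given: plate controls were no enzyme wells and a reference inhibitor.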

What follows are molecules tested against Aldehyde dehydrogenase 1A1 (Homo sapiens) (UniProt P00352) (assay: qHTS Assay for Inhibitors of Aldehyde Dehydrogenase 1 (ALDH1A1)). Conditions: Purified ALDH1A1, NADH fluorescence, propionaldehyde substrate; series mostly up to 75.3 µM.
UniProt P00352, sequence (P00352 whole entry, looked up): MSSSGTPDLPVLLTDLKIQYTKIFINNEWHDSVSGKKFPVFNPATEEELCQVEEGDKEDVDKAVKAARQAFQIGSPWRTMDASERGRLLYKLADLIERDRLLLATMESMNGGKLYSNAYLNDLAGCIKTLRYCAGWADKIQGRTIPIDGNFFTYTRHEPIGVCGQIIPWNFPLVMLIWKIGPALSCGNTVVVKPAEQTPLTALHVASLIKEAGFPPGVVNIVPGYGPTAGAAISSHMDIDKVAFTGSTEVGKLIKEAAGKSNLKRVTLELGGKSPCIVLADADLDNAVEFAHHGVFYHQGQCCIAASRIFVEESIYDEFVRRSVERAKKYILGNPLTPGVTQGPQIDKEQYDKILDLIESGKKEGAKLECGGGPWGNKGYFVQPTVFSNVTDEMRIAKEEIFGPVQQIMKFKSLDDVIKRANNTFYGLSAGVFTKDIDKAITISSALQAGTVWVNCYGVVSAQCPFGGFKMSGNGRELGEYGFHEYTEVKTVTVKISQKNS
With `Cc1cc(OC(C)C)c2c(-c3ccccc3)cc(=O)oc2c1` the Potency was inconclusive [inhibitor, partial curve].
`CC(=O)Nc1ccc(NC(=O)CSc2ccc(-c3ccc4c(c3)OCO4)nn2)cc1` was tested, and the Potency was inconclusive [inhibitor, single point].
In the case of `CCn1cnc2sc(C(=O)Oc3ccc(Br)cc3)c(C)c2c1=O`, the Potency is reported as “inactive”.
In the case of `O=C1NN(c2ccccc2)C(=O)/C1=C\c1cccc(OC(=O)c2cccs2)c1`, the Potency is reported as active: 7.94 µM.
With `Cc1nn(-c2ccccc2)c2sc(C(=O)NNC(=O)COc3ccccc3)cc12` the Potency was inconclusive [inhibitor, partial curve].
In the case of `S=c1[nH]nc(-c2cc(-c3ccco3)[nH]n2)n1-c1cccc2ccccc12`, the Potency is reported as inconclusive [inhibitor, single point].
In the case of `COc1ccc2cc(C#N)c(SCC(=O)NNC(=O)Cc3ccccc3)nc2c1`, the Potency is reported as inconclusive [inhibitor, partial curve].
For `Nc1nc(SCC(=O)Nc2cccc(Oc3ccccc3)c2)n[nH]1`, the Potency was inconclusive [inhibitor, single point].
`Cc1nn(Cc2c(Cl)cccc2Cl)c(C)c1NC(=O)c1cc(C(C)C)on1` was tested, and the Potency was “inactive”.
For `CCOC1=C/C(=C/c2c(N)n3nc(S(=O)(=O)CC)sc3nc2=O)C=CC1=O`, the Potency was inconclusive [inhibitor, single point].
With `CCCCC1(Cc2ccc(OC)c([N+](=O)[O-])c2)C(=O)N(c2ccccc2)N(c2ccccc2)C1=O` the Potency was inconclusive [inhibitor, partial curve].
`O=C(CN1C(=O)c2ccccc2S1(=O)=O)NC(Nc1ccccc1F)C(Cl)(Cl)Cl` (centres undefined) was tested, and the Potency was “inactive”.
For `N#Cc1c(NC(=O)CCC(=O)O)sc2c1CCCCC2`, the Potency was active: 14.1 µM.
`CCc1ccc2nc(SCC(=O)N(CC)CC)c(C#N)cc2c1` was tested, and the Potency was inconclusive [inhibitor, single point].
`CCOc1ccc(S(=O)(=O)Nc2cc(Sc3ncn[nH]3)c3oc(=O)sc3c2)cc1` was tested, and the Potency was “inactive”.
`COC(=O)CCC(=O)OC1(C)C(=O)C=C2C=C(C3CC3)N(c3ccc(OC)cc3)C=C2C1=O` (centres undefined) was tested, and the activity, negative = inhibition was inactive: -2.88% [at 13.5 µM].
With `COc1cccc(CC2(CO)CCCN(C/C=C/c3ccccc3OC)C2)c1` (centres undefined) the Potency was inconclusive [inhibitor, single point].
With `Cc1nc2oc3c(NCc4ccccc4)ncnc3c2c2c1COC(C)(C)C2` the Potency was inconclusive [inhibitor, partial curve].
`O=c1c(C(c2ccc(O)cc2)c2c(O)nc3n(c2=O)CCS3)c(O)nc2n1CCS2` was tested, and the Potency was active: 12.6 µM.
With `Cc1ccc2c(C(=O)CN3CCSCC3)c(C)[nH]c2c1` the Potency was inconclusive [inhibitor, single point].
For `O=c1c2cc(N3CCOCC3)ccc2[nH]c(=S)n1Cc1ccco1`, the Potency was inconclusive [inhibitor, partial curve].
For `CCOC(=O)c1c(-c2ccc(C)cc2)cn2ccccc12`, the Potency was inconclusive [inhibitor, partial curve].
For `CCSc1ncc(Cl)c(C(=O)N(Cc2ccc(N(C)C)cc2)C2CCS(=O)(=O)C2)n1` (centres undefined), the Potency was inconclusive [inhibitor, single point].
For `COc1ccc2oc(=O)c(-c3nc(C)cs3)cc2c1`, the Potency was inconclusive [inhibitor, single point].
For `CSc1nnc(-c2sc3cc(C(F)(F)F)cnc3c2-c2cccnc2)n1C`, the Potency was inconclusive [inhibitor, single point].
In the case of `Cc1ncoc1C(=O)N1CCCC(CCC(=O)NCc2ccccc2F)C1` (centres undefined), the Potency is reported as inconclusive [inhibitor, single point].
`CCOC(=O)NC[C@H](Cc1ccc(OCCc2nc(-c3ccccc3)oc2C)cc1)N/C(C)=C\C(=O)c1ccc(C(F)(F)F)cc1` was tested, and the Potency was inconclusive [inhibitor, single point].
In the case of `CCc1ccc(NC(=O)c2ccc(C3SCC(=O)N3CCc3ccccc3)cc2)cc1` (centres undefined), the Potency is reported as inconclusive [inhibitor, partial curve, poor fit].
For `C/C(=N\NC(=O)c1ccc(C)cc1C)c1ccc2c(c1)Nc1ccccc1S2`, the Potency was “inactive”.
`CCC(C(=O)OCC(=O)c1ccc2c(c1)NC(=O)CO2)c1ccccc1` (centres undefined) was tested, and the Potency was inconclusive [inhibitor, single point].
`COc1cccc(-n2c(=O)[nH]cc(C(=O)Nc3ccc(NC(C)=O)cc3)c2=O)c1` was tested, and the Potency was “inactive”.
With `CC(C)CN(CC(C)C)c1nnc(NC(=O)Cn2c(=O)oc3ccccc32)s1` the Potency was active: 1.41 µM.
In the case of `Cc1[nH]c2ccccc2c1CN1CCC(Cc2ccccc2)CC1`, the Potency is reported as inconclusive [inhibitor, single point].
In the case of `Cc1ccc(C)c(OCC(O)CN2CCCCC2C)c1` (centres undefined), the Potency is reported as “inactive”.
In the case of `CC1CCc2c(C(=O)NCc3ccccn3)csc2C1` (centres undefined), the Potency is reported as inconclusive [inhibitor, single point].
With `CCOC(=O)Cn1c(=O)oc2ccc(C)cc21` the Potency was “inactive”.
`Cc1cc(C(=O)CCl)c(C)n1CC1COc2ccccc2O1` (centres undefined) was tested, and the Potency was active: 0.251 µM.
In the case of `CC(C)C[C@@H](CC(=O)N[C@@H](CCC(=O)O)CC(=O)O)NC(=O)[C@@H]1CNCC[C@H]1NC(=O)C[C@@H](NC(=O)C[C@H](Cc1ccccc1)NC(=O)[C@@H]1CCCC[C@H]1N)C(C)C`, the Potency is reported as “inactive”.
`CC1CCCCC1NC(=S)NC(=O)c1sc2ccccc2c1Cl` (centres undefined) was tested, and the Potency was inconclusive [inhibitor, single point].
With `Cc1onc(-c2c(F)cccc2Cl)c1C(=O)NC1=NCCS1` the Potency was inconclusive [inhibitor, single point].
`O=C(Cc1ccc(Cl)cc1)Nc1cccc2ncccc12` was tested, and the Potency was inconclusive [inhibitor, partial curve].
For `CN(C)C(=S)SCC(=O)NC(=O)NC(C)(C)C`, the Potency was “inactive”.
For `CN1CCN(CCC(=O)Nc2cccc(F)c2)CC1`, the Potency was inconclusive [inhibitor, single point].
In the case of `O=C(CNC(=O)c1ccncc1)N/N=C/c1cc(Br)ccc1O`, the Potency is reported as “inactive”.
